Reference: PubChem BioAssay (NCI)
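Results reflect a 48-hour exposure of cells in 96-well plates to compound at five concentrations. GI50 marks 50% less growth. At the TGI there is no net growth.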

Test system: NCI-H322M lung
Test: NCI-60 cell line screen, 48 h

| SMILES | GI50 | TGI |
| --- | --- | --- |
| O=C(CSc1nc2sc3c(c2c(=O)n1-c1ccc(Cl)cc1)CCCC3)N/N=C/C=C/c1ccccc1 | 21.5 µM | > 100 µM |
| Cc1ccc2c(c1)nc(-c1ccccc1)n2CC(=O)N=Nc1c(O)[nH]c2ccc(Cl)cc12 | 1.88 µM | 4.02 µM |
